Measured values reported in PMC6919601, “Identification of Plasmodium dipeptidyl aminopeptidase allosteric inhibitors by high throughput screening” (PLoS ONE, 2019).
Out of some 110,000 compounds screened, about 230 (0.21%) showed an effect of 50% or more. Some of the results follow.

molecular target: DPAP1 (Plasmodium falciparum, UniProt Q8IIJ9); experiment: primary screen, percent inhibition; read by cleavage of a fluorogenic dipeptide substrate; higher = more effect of the substance; set-up: species or system P. falciparum D10 trophozoite lysates; single well
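Further: 30 min substrate incubation versus DMSO and 10 µM JCP410 controls.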

DPAP1, sequence (Q8IIJ9 whole entry, looked up): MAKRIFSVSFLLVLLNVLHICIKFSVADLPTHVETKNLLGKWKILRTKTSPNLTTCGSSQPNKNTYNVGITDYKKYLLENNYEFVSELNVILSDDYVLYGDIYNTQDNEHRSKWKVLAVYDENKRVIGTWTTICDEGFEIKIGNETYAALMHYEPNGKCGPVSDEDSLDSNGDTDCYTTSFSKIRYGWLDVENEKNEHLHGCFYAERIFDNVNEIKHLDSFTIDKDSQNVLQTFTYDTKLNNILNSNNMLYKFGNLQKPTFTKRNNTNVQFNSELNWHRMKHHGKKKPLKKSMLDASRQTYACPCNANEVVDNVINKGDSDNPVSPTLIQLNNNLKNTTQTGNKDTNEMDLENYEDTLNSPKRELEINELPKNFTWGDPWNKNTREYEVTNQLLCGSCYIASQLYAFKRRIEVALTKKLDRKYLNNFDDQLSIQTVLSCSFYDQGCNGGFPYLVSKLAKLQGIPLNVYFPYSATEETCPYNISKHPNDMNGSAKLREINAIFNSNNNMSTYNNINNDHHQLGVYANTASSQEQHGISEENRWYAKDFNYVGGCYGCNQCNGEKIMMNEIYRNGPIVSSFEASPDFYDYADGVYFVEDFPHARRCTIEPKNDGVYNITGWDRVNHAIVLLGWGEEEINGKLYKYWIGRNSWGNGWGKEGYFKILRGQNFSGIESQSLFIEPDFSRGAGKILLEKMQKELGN

| Compound | % Inhibition @ 10 uM [%] |
| --- | --- |
| COc1ccc(S(=O)(=O)N2CCN(CCO)CC2)cc1-c1nnc2c3ccccc3c(C)nn12 | 0.628 |
| CCOC(=O)N1CCC(N2Cc3cccc(C(=O)NCc4ccc(C)cc4)c3C2=O)CC1 | 2.9 |
| CCOCCCNC(=O)c1ccc(CS(=O)(=O)c2cccc(C(F)(F)F)c2)o1 | 2.14 |
| Nc1c(-c2nc(-c3cccnc3)no2)nnn1-c1ccccc1 | 2.96 |
| COC(=O)CSC1=C(C#N)C(c2ccccc2)C(C(=O)Nc2ccccc2)=C(C)N1 (centres unmarked) | 37.3 |
| OCCCN1CCN(C2Cc3cc(F)ccc3Sc3ccc(Cl)cc32)CC1 (centres unmarked) | 0.488 |
| CCCCOC(=O)CNc1nnc(O)nc1O | -2.62 |
| COc1cc(-c2nnc3sc(-c4ccccc4Br)nn23)cc(OC)c1OC | 7.5 |
| O=C(CN1CCCCC1)c1ccccc1 | 2.56 |
| COc1ccc(C(=O)c2ccccc2)cc1CN1CCOCC1 | -4.96 |
| COCCN1C(=O)c2ccccc2C(C(=O)N(C)Cc2ccccc2)C1c1cn(C)c2ccccc12 (centres unmarked) | 7.15 |
| CC(C)(C)Nc1nc2c(S(=O)(=O)c3ccccc3)nnn2c2ccccc12 | 15.5 |
| COc1ccc(-c2c(C(C)=O)c(C)nc3sc4c(c23)NC(c2ccccc2)NC4=O)cc1 (centres unmarked) | -6.57 |
| Cc1cc(=O)n2nc(-c3ccccc3)sc2n1 | 1.24 |
| CCCCNC(=O)c1cn(-c2ccccc2)nc1-c1ccccc1 | 2.38 |
| C=C(C)Cn1c(SCCC(C)C)nc2c1c(=O)[nH]c(=O)n2C | -5.14 |
| CCn1cc(/C=C(/C#N)C(N)=O)c2ccccc21 | -4.32 |
| CC(C)CCOc1ccc(C(=O)CCN(C)C)cc1 | 3.17 |
| CC1CCCN(C(=O)c2cc3c(-c4ccccc4F)nn(C)c3s2)C1 (centres unmarked) | 1.79 |
| O=C(Nc1ccc(Cl)cc1C(=O)NCCO)c1ccco1 | -1.68 |
| COc1cc(OC)c(OC)cc1/C=C1N=C(/C=C/c2ccccc2)OC\1=O | -34.9 |
| O=C(CCN1C(=O)c2ccccc2C1=O)N1CCCCCC1 | 1.44 |

| Compound | % Inhibition @ 10 uM [%] |
| --- | --- |
| CCCCCCCCc1ccc(-c2ccc(C(=N)NO)cc2)cc1 | -2 |
| c1cc2c(cc1CNC13CC4CC(CC(C4)C1)C3)OCO2 | -3.32 |
| COc1cc(CNCc2c(C(=O)O)n(Cc3ccccc3C)c3ccccc23)cc(OC)c1OC | -1.34 |
| Clc1cccc(N2CCN(Cc3c[nH]c4ccccc34)CC2)c1 | -5.57 |
| CC1=CC(C)(C)NC(=S)N1c1ccc(C(=O)/C=C/c2ccccc2)cc1 | -0.687 |
| O=C(O)CN(Cc1ccc(Br)cc1)S(=O)(=O)c1ccccc1 | 1.08 |
| O=S(=O)(c1ccc(-c2cc(C(F)(F)F)no2)s1)N1CCC2(CC1)OCCO2 | -0.895 |
| O=C(CN1CCCCCC1)N1c2ccccc2Sc2ccc(Cl)cc21 | -7.54 |
| CC(NC(=O)Cn1ncc2ccccc21)c1ccccc1 (centres unmarked) | 3.29 |
| Cc1cccc(Nc2nc3c(c(=O)[nH]c(=O)n3C)n2CCC#N)c1 | -3.58 |
| CC(C)(C)C1CCC(NCCN2CCOCC2)CC1 (centres unmarked) | -5.44 |
| COc1ccccc1C(=O)N1CC2(C)CC1CC(C)(C)C2 (centres unmarked) | -5.15 |
| COc1ccc2nc(Cl)c(C3CC(c4ccc(Cl)cc4)=NN3C(C)=O)cc2c1 (centres unmarked) | 4.18 |
| CCC(CCC(C)C1CCC2C3CC(O)C4(O)CC(O)CCC4(C)C3CCC12C)C(C)C (centres unmarked) | -1.32 |
| COc1cc2c3c(c1)C(C)CC(C)(C)N3C(=O)C2=O (centres unmarked) | 4.7 |
| O=C(COc1ccccc1)NC(Cc1c[nH]c2ccccc12)C(=O)O (centres unmarked) | 10.2 |
| O=C(COc1cccc(Cl)c1)NC1CCCCC1 | 0.997 |
| COc1cc(CNCc2ccc(OC)c(C)c2)cc(OC)c1 | -4.7 |
| Cc1cc(C)c(C(=O)CC(N2CCOCC2)C(F)(F)F)c(O)n1 (centres unmarked) | 3.81 |
| O=C(NCC1CCCO1)c1ccc(CSCc2ccc(Cl)cc2)o1 (centres unmarked) | -3.12 |
| COc1ccc(OC)c(NC(=O)c2sc3nc4c(cc3c2N)CCCC4)c1 | -2.32 |
| Cc1ccc2onc(CC(=O)NCCCOC(C)C)c2c1 | -6.01 |

| Compound | % Inhibition @ 10 uM [%] |
| --- | --- |
| COc1ccc(CN2C(=O)c3cccnc3C2=O)cc1S(=O)(=O)N(C)C1CCCCC1 | 6.34 |
| Cc1nc(=O)c(-c2ccccc2)c(C)n1CCOC12CC3CC(CC(C3)C1)C2 | 1.63 |
| CCc1ccc(S(=O)(=O)c2nnn(-c3cccc(OC)c3)c2N)cc1 | -3.85 |
| CCOC(=O)c1c(SC)n[nH]c1N | 1.02 |
| CCOc1ccc(Cc2c(O)ncnc2O)cc1 | -4.4 |
| Clc1ccccc1-c1nnc(SCc2ccccc2)o1 | 5.09 |
| CC(=O)c1ccc2c(c1)[nH]c1cc(C(C)=O)ccc12 | -4.97 |
| O=C(COCc1cc(-c2ccc3c(c2)OCO3)on1)NCc1cccnc1 | 3.12 |
| O=C(C1=C(O)C(=O)N(c2ccc(F)cc2)C1c1ccc(F)cc1)c1ccccc1 (centres unmarked) | 1.83 |
| CCOP(=O)(OCC)C(Nc1ccc(Cl)c(Cl)c1)c1ccc(Br)cc1 (centres unmarked) | 0.00178 |
| C(=C\c1ccccc1)/CN1CCN(c2ccccc2)CC1 | -4.04 |
| N=C1/C(=C\c2coc3ccccc3c2=O)C(=O)N=C2SC(SCCOc3ccccc3)=NN12 | -7.65 |
| Cc1ccccc1C(=O)Nc1ccccc1C(F)(F)F | 6.8 |
| COc1ccc(S(=O)(=O)Nc2ccc(C(=O)O)cc2)cc1 | -1.82 |
| O=C(CCNS(=O)(=O)c1cccc2nsnc12)NC1CCN(Cc2ccccc2)CC1 | -1.2 |
| CCOc1ccccc1NC(=O)CN(c1ccc(C)cc1)S(=O)(=O)c1ccccc1 | 5.28 |
| CCC(C(=O)NCc1cccc(Cl)c1)n1nc(C)c2sc3ccccc3c2c1=O (centres unmarked) | -4.43 |
| O=C(Nc1cccc2nsnc12)c1cc(Br)ccc1NS(=O)(=O)c1ccc(Cl)cc1 | 3.01 |
| CCOC(=O)C1=CN(C)C=C(C(=O)OCC)C1c1cc(OC)ccc1OC | -5.05 |
| CC(=O)c1ccc(NS(=O)(=O)c2c(C)cc(C)cc2C)cc1 | 5.29 |
| COc1ccc(S(=O)(=O)N(CC(=O)Nc2ccc(CC#N)cc2)c2cccc(Cl)c2)cc1 | 5.08 |
